The results in this text go back to the supplement of paper PMC9446081.

Out of some 39,000 compounds screened, about 220 (0.56%) showed activity. Some of the results follow.
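Also: static incubation at 37 °C against the wild-type strain, values averaged over two biological replicates.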

The test system of the assay is Escherichia coli K-12 BW25113. Briefly: relative growth (OD600 normalised to plate interquartile mean) (fraction); higher = less growth inhibition, active = 0.2 or less. The conditions noted are these: 50 µM; LB; incubation time: overnight (16-24 h).
On to `Cc1ccc(S(=O)(=O)N(C)C[C@@H]2Oc3c(NC(=O)C4CC4)cccc3C(=O)N([C@H](C)CO)C[C@H]2C)cc1`, for which the relative growth is inactive: 0.983.
As for `CON`, the figure is inactive: 0.981.
Consider `C[C@H]1CN([C@@H](C)CO)C(=O)c2cccc(NC(=O)c3ccncc3)c2O[C@H]1CN(C)C(=O)Nc1ccc2c(c1)OCO2`, for which the relative growth is inactive: 1.01.
As for `C[C@@H]1CN([C@@H](C)CO)C(=O)c2cccc(NC(=O)c3ccncc3)c2O[C@H]1CN(C)S(=O)(=O)c1cn(C)cn1`, the figure is inactive: 0.99; as for `Cc1noc(C)c1S(=O)(=O)N(C)C[C@@H]1Oc2c(NC(=O)C3CC3)cccc2C(=O)N([C@H](C)CO)C[C@@H]1C`, inactive: 0.996.
Then `O=C(O)Cn1cccn1`, with inactive: 0.969; and `CCCN(C)C[C@@H]1OCCCC[C@@H](C)Oc2ccc(NS(C)(=O)=O)cc2C(=O)N([C@H](C)CO)C[C@@H]1C`, with inactive: 0.984; and `O=C(C[C@@H]1CC[C@H]2[C@@H](COC[C@H](O)CN2Cc2ccccc2F)O1)N[C@H]1CCN(Cc2ccccc2)C1`, with inactive: 0.979.
With `CC(C)(N)c1cc(C(=O)N[C@@H]2CCc3ccc(Oc4ccnc5c4CCC(=O)N5)cc3C2)cc(C(F)(F)F)c1`, the relative growth is inactive: 0.962.
As for `Cc1csc(-c2nnc(Nc3ccc(Oc4ncccc4-c4ccnc(N)n4)cc3)c3ccccc23)c1`, the figure is inactive: 1.05; as for `C[C@@H]1CN([C@H](C)CO)S(=O)(=O)c2ccc(/C=C/c3ccccc3)cc2O[C@@H]1CN(C)C(=O)CN1CCOCC1`, inactive: 1.02.
Consider `COc1ccc(S(=O)(=O)Nc2ccc3c(c2)C(=O)N([C@@H](C)CO)C[C@@H](C)[C@H](CN(C)Cc2ccc(C(=O)O)cc2)OCCCC[C@H](C)O3)cc1`, for which the relative growth was inactive: 0.998.
As for `CC(=O)O[C@H]1C[C@@]2(C)[C@@H](C[C@@H](O)[C@H]3[C@@]4(C)CC[C@@H](O)[C@@H](C)[C@H]4CC[C@@]32C)C1=C(CCC=C(C)C)C(=O)O`, the relative growth was inactive: 0.959.
For the compound `C[C@@H]1CCCCO[C@@H](CN(C)C(=O)Nc2ccccc2)[C@@H](C)CN([C@H](C)CO)C(=O)c2cc(NC(=O)Nc3ccccc3)ccc2O1`, the relative growth was inactive: 1.02.
As to `C[C@@H]1CN([C@@H](C)CO)C(=O)c2cccc(NS(=O)(=O)c3cccs3)c2O[C@@H]1CN(C)S(=O)(=O)c1cccs1`, the relative growth was inactive: 1.01.
Regarding `Cc1ccc(S(=O)(=O)N(C)C[C@@H]2OCCCC[C@@H](C)Oc3ccc(NC(=O)Nc4cccc5ccccc45)cc3C(=O)N([C@H](C)CO)C[C@@H]2C)cc1`, the relative growth is inactive: 1.04.
As for `C[C@H](CO)N1C[C@H](C)[C@H](CN(C)S(=O)(=O)c2ccc(Cl)cc2)OCCCC[C@H](C)Oc2ccc(NC(=O)Nc3cccc4ccccc34)cc2C1=O`, the figure is inactive: 1.06.
As for `CCOC(=O)c1c(CN2CCN(c3ccccc3)CC2)n(C2CCCCC2)c2cc(Br)c(O)cc12`, the figure is inactive: 1.01; as for `C[C@H](CO)N1C[C@H](C)[C@@H](CN(C)Cc2ccc(C(=O)Nc3ccccc3N)cc2)Oc2ccc(NC(=O)Nc3ccccc3)cc2CC1=O`, inactive: 0.996.
As for `OCCN1CCCNCC1`, the figure is inactive: 1.03.
For the compound `Cc1[nH]c(SCCC(=O)O)nc(=O)c1C`, the relative growth is inactive: 1.04.
As for `C[C@H]1CN([C@@H](C)CO)C(=O)Cc2cc(NC(=O)Cn3cnnn3)ccc2O[C@@H]1CN(C)C(=O)NC1CCCCC1`, the figure is inactive: 0.927; as for `COc1cccc(NC(=O)N(C)C[C@@H]2Oc3ncc(C#Cc4cccnc4)cc3C(=O)N([C@@H](C)CO)C[C@H]2C)c1`, inactive: 0.999.
On to `CC(C(=O)O)c1ccc2c(c1)CC(=O)c1ccccc1S2` (stereo not given), for which the relative growth was inactive: 1.1.
Then `COc1ccc(S(=O)(=O)Nc2cccc3c2O[C@H](CN(C)C(=O)Nc2cccc4ccccc24)[C@@H](C)CN([C@@H](C)CO)C3=O)cc1`, with inactive: 1; and `C[C@H](CO)N1C[C@H](C)[C@@H](CN(C)CC2CC2)OCCCC[C@H](C)Oc2ccc(NC(=O)c3ccccc3)cc2C1=O`, with inactive: 1.02; and `CN([C@@H](c1ccccc1)c1ccccn1)S(=O)(=O)c1cn(C)c(=O)n(C)c1=O`, with inactive: 0.994.
As for `COc1ccc([Si](C)(C)[C@@H]2[C@@H](CCn3cc([C@H](O)c4ccccc4)nn3)O[C@]3(C(=O)N(Cc4ccc(N5CCC5=O)cc4)c4ccccc43)[C@H]2C)cc1`, the figure is inactive: 1.
As for `COc1cccc(S(=O)(=O)Nc2ccc3c(c2)[C@H]2C[C@@H](CC(=O)N4CCCCC4)O[C@H](CO)[C@H]2O3)c1`, the figure is inactive: 1.01.
For `C[C@H](CO)N1C[C@H](C)[C@@H](CN(C)CC2CCCCC2)Oc2c(NC(=O)Nc3ccccc3)cccc2C1=O`, the relative growth is inactive: 0.949.
Take `C[C@H]1CN([C@@H](C)CO)C(=O)c2cc(NC(=O)CCN3CCOCC3)ccc2O[C@H]1CN(C)Cc1ccncc1`: the relative growth is inactive: 1.
For `C[C@H](CO)N1C[C@H](C)[C@@H](CN(C)CC2CCCCC2)Oc2ccc(NC(=O)Nc3cccc4ccccc34)cc2CC1=O`, the relative growth was inactive: 0.939.
Then `COc1ccc(NC(=O)Nc2cccc3c2O[C@@H](CN(C)S(C)(=O)=O)[C@H](C)CN([C@@H](C)CO)C3=O)cc1`, with inactive: 1.01; and `COc1ccc(NC(=O)N(C)C[C@@H]2Oc3c(NS(=O)(=O)c4c(C)noc4C)cccc3C(=O)N([C@@H](C)CO)C[C@@H]2C)cc1`, with inactive: 0.845; and `COc1ccc(S(=O)(=O)N(C)C[C@H]2Oc3ccc(NS(=O)(=O)c4ccc(F)cc4)cc3C(=O)N([C@H](C)CO)C[C@@H]2C)cc1`, with inactive: 1.01.
`C[C@@H]1CN([C@@H](C)CO)C(=O)c2c(c3ccccc3n2C)-c2ccccc2CO[C@@H]1CN(C)C(=O)[C@H](C)c1ccccc1`: the relative growth is inactive: 1.
For `C[C@H](CO)N1C[C@H](C)[C@H](CN(C)CC2CC2)OCCCC[C@H](C)Oc2ccc(NC(=O)CCC(F)(F)F)cc2C1=O`, the relative growth was inactive: 0.985.
As to `COc1cccc(S(=O)(=O)N[C@@H]2CC[C@H](CCn3cc(-c4ccccc4OC)nn3)O[C@H]2CO)c1`, the relative growth is inactive: 1.03.
As for `C[C@H]1CCCCO[C@@H](CN(C)C(=O)Nc2cccc3ccccc23)[C@@H](C)CN([C@@H](C)CO)C(=O)c2cc(NS(=O)(=O)c3cn(C)cn3)ccc2O1`, the figure is inactive: 0.954; as for `C[C@@H]1CCCCO[C@@H](CN(C)Cc2ccc(C(F)(F)F)cc2)[C@H](C)CN([C@@H](C)CO)C(=O)c2cc(NS(=O)(=O)c3ccc(F)cc3)ccc2O1`, inactive: 0.991; as for `O=C(C[C@@H]1CC[C@@H]2[C@H](COC[C@@H](O)CN2Cc2cc(F)ccc2F)O1)N[C@H]1CCN(Cc2ccccc2)C1`, inactive: 1.02.
`C[C@@H]1CN([C@H](C)CO)C(=O)c2cc(NC(=O)Nc3cccc4ccccc34)ccc2O[C@@H](C)CCCCO[C@H]1CN(C)Cc1ccccc1`: the relative growth is inactive: 1.
As for `Cc1noc(C)c1NC(=O)Nc1ccc2c(c1)C(=O)N([C@@H](C)CO)C[C@@H](C)[C@@H](CN(C)C(=O)Nc1ccccc1)OCCCC[C@H](C)O2`, the figure is inactive: 1.01.
Regarding `Cc1ccc(S(=O)(=O)N(C)C[C@H]2Oc3c(NS(=O)(=O)c4ccccc4)cccc3C(=O)N([C@@H](C)CO)C[C@H]2C)cc1`, the relative growth is inactive: 1.04.
Then `Cc1nc(-c2ccc(OCC(C)C)c(C#N)c2)sc1C(=O)O`, with inactive: 0.831; and `C[C@@H]1CN([C@H](C)CO)C(=O)c2cc(NC(=O)Nc3cccc4ccccc34)ccc2O[C@H]1CN(C)Cc1ccc2c(c1)OCO2`, with inactive: 1; and `C[C@@H]1CN([C@H](C)CO)C(=O)c2cc(NS(C)(=O)=O)ccc2O[C@@H](C)CCCCO[C@H]1CN(C)Cc1ccncc1`, with inactive: 0.999.
As for `O=C(CN1CCOCC1)N[C@@H]1CC[C@@H](CCNC(=O)C2CCCCC2)O[C@H]1CO`, the figure is inactive: 1.
Then `C[C@@H]1CN([C@H](C)CO)C(=O)c2cc(NC(=O)CCCN(C)C)ccc2O[C@@H]1CN(C)Cc1ccc2c(c1)OCO2`, with inactive: 0.988.
For the compound `C[C@H]1CN([C@@H](C)CO)C(=O)c2cc(NC(=O)c3ccncc3)ccc2O[C@H]1CN(C)S(=O)(=O)c1ccc(F)cc1`, the relative growth was inactive: 1.01.
Take `C[C@@H]1CCC[C@H](C)N1c1nn(C)c(=O)[nH]1`: the relative growth is inactive: 0.994.
Then `C[C@@H]1CCCCO[C@H](CN(C)C(=O)c2ccccc2)[C@H](C)CN([C@@H](C)CO)C(=O)c2cc(NC(=O)NC3CCCCC3)ccc2O1`, with inactive: 0.981.
Then `COc1ccc(S(=O)(=O)Nc2cccc3c2O[C@H](CN(C)C(=O)Nc2c(C)noc2C)[C@H](C)CN([C@@H](C)CO)C3=O)cc1`, with inactive: 0.982; and `C[C@H](CO)N1C[C@H](C)[C@H](CN(C)C(=O)c2ccncc2)OCCCC[C@H](C)Oc2ccc(NC(=O)CCCCCC(=O)Nc3ccccc3N)cc2C1=O`, with inactive: 1.01.
As for `COCC(=O)Nc1ccc2c(c1)C(=O)N(C)[C@H]1CC[C@H](CC(=O)NCc3ccc(OC)cc3)O[C@H]1CO2`, the relative growth is inactive: 0.998.
As for `COC(=O)c1c(CC[C@@H](CO)NC(=O)N[C@H](Cn2cc(-c3ccccc3C)nn2)C(C)C)oc(C(C)=O)c1C(=O)OC`, the figure is inactive: 1.02.
Then `C[C@H](CO)N1C[C@H](C)[C@@H](CN(C)S(=O)(=O)c2ccc3ccccc3c2)OCc2cn(nn2)CCCC1=O`, with inactive: 0.969.
Then `CNC[C@@H]1OCCCC[C@H](C)Oc2ccc(NC(=O)c3ccncc3)cc2C(=O)N([C@@H](C)CO)C[C@@H]1C`, with inactive: 1; and `Cc1nn(C)c(Cl)c1S(=O)(=O)NC(=O)[C@@]1(C)CCN1C(=O)c1ccccc1CCc1ccccc1`, with inactive: 0.979; and `COc1ccccc1NC(=O)C1=C(C)N=C(SCC(=O)Nc2ccccc2[N+](=O)[O-])C(C#N)[C@@H]1c1ccccc1F` (stereo not given in full), with inactive: 1.04.
